This is one part of the list. The main result of the screen is listed elsewhere. These columns were measured beside it and carry no call.
Experiments:
Test in all cases: Primary Screen for Target Class Profiling of Small Molecule Inhibitors of Methyltransferases
[1] = target: Glycine N-methyltransferase (Homo sapiens) (UniProt Q14749); settings: purified enzyme, MTase-Glo SAH luminescence; measured here: GNMT inhibition; at 40 µM; stronger effect = lower value
In short: (§1)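 Each enzyme was assayed with SAM and its substrate. SAH formation detected by MTase-Glo luminescence; single-point 40 uM screen[…].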

[2] = target: Guanidinoacetate N-methyltransferase (Homo sapiens) (UniProt Q14353); settings: purified enzyme, MTase-Glo SAH luminescence; measured here: GAMT inhibition; at 40 µM; stronger effect = lower value
In short: as §1

[3] = target: Histamine N-methyltransferase (Homo sapiens) (UniProt P50135); settings: purified enzyme, MTase-Glo SAH luminescence; measured here: HNMT inhibition; at 40 µM; stronger effect = lower value
In short: as §1

[4] = target: Nicotinamide N-methyltransferase (Homo sapiens) (UniProt P40261); settings: purified enzyme, MTase-Glo SAH luminescence; measured here: NNMT inhibition; at 40 µM; stronger effect = lower value
In short: as §1

[5] = target: Phenylethanolamine N-methyltransferase (Homo sapiens) (UniProt P11086); settings: purified enzyme, MTase-Glo SAH luminescence; measured here: PNMT inhibition; at 40 µM; stronger effect = lower value
In short: as §1
% is set by controls: 0 for no effect and ±100 for the full control effect.

Row | SMILES | activity change, negative = inhibition [1] | activity change, negative = inhibition [2] | activity change, negative = inhibition [3] | activity change, negative = inhibition [4] | activity change, negative = inhibition [5]
1 | CCc1ccc(C2c3cccn3-c3ccccc3CN2C(=O)Nc2ccc(OC)c(OC)c2)cc1 (centres undefined) | 8.77% | 1.56% | 3.9% | 6.8% | 5.12%
2 | Cc1ccc(NC(=O)N2Cc3ccccc3-n3cccc3C2C)cc1Cl (centres undefined) | 12.4% | 0% | 9.59% | 7.39% | 6.05%
3 | CS(=N)(=O)CC[C@H](N)C(=O)O (some centres undefined) | -9.31% | 1.2% | 0.411% | -3.27% | 5.41%
4 | CC1c2cccn2-c2ccccc2CN1C(=O)Nc1cccc(Cl)c1 (centres undefined) | 2.15% | 4.63% | -4.54% | -2% | 2.08%
5 | C[C@]12CC[C@H]3[C@@H]([C@H](O)CC4=CC(=O)CC[C@@]43C)[C@@H]1CC[C@@H]2O | 5.73% | 5.28% | 5.69% | -8.65% | 1.5%
6 | CCOC(=O)c1ccccc1NC(=O)N1Cc2ccccc2-n2cccc2C1c1ccccc1Cl (centres undefined) | 5.71% | 0% | 0.803% | 1.34% | 0.235%
7 | COC(=O)CCNC(=O)N1Cc2ccccc2-n2cccc2C1c1ccccc1Cl (centres undefined) | 7.87% | 0% | 4.81% | 1.96% | 2.18%
8 | Cc1c(Cl)c(OCC(=O)N2CCN(C)CC2)nc2sc(C(=O)NC3CC3)c(N)c12 | -4.35% | -3.52% | -4.89% | -20.5% | -9.32%
9 | COc1cccc(NC(=O)N2Cc3ccccc3-n3cccc3C2c2cccc(C)c2)c1 (centres undefined) | 6.65% | 0.148% | -1.99% | -4.53% | -0.69%
10 | Cc1ccc(C2c3cccn3-c3ccccc3CN2C(=O)Nc2ccccc2)cc1 (centres undefined) | 10.4% | 1.5% | -1.48% | -6.57% | -1.58%
11 | CCOC(=O)c1cccc(NC(=O)N2Cc3ccccc3-n3cccc3C2c2ccc(SC)cc2)c1 (centres undefined) | 2.05% | 3.53% | 4.08% | 6.73% | 10.9%
12 | COc1cccc(NC(=O)N2Cc3ccccc3-n3cccc3C2c2ccc(F)cc2)c1 (centres undefined) | -5.15% | 0% | 1.27% | 1.21% | 6.48%
13 | Cc1ccc(S(=O)(=O)N[C@@H](CCCCN)C(=O)CCl)cc1 | -19.2% | 5.24% | -2.77% | -5.69% | 5.37%
14 | O=C(NCc1ccc(F)cc1)[C@H]1CN2CC[C@H]1C[C@@H]2Cn1cc(-c2ccccc2)nn1 | -5.59% | -6.59% | -6.28% | -9.98% | -0.811%
15 | CCCN1CCC[C@@H](c2cccc(O)c2)C1 | 5.46% | 11.6% | -26.6% | -2.39% | 6.81%
16 | O=C(C1CCC1)N1[C@H]2CC[C@@H]1c1cnc(-c3ccccc3)nc1C2 | -5.32% | -6.16% | -2.74% | -15.8% | -16.8%
17 | O=C(Oc1ccc([N+](=O)[O-])cc1)N1CCC(C(O)(c2ccc3c(c2)OCO3)c2ccc3c(c2)OCO3)CC1 | -1.83% | -26.4% | -1.5% | -31.3% | -9.53%
18 | Cc1ccc(C2c3cccn3-c3ccccc3CN2C(=O)Nc2cccc(Br)c2)cc1 (centres undefined) | 12.1% | 0% | 8.9% | 11.6% | 7.58%
19 | COc1cccc(NC(=O)N2Cc3ccccc3-n3cccc3C2c2cccs2)c1 (centres undefined) | 3.15% | 4.94% | -1.04% | -7.52% | 3.67%
20 | C1=C(c2cnc[nH]2)c2ccsc2CC1 | -16.2% | -18.7% | -14% | -25.9% | -31.7%
21 | C=C(C)[C@@]12O[C@@H]1[C@@]1(C)C(=C[C@H]2O)CC[C@@H](O)[C@@H]1C | 0% | 6.06% | 10.7% | -6.16% | 0.297%

Row | SMILES | activity change, negative = inhibition [1] | activity change, negative = inhibition [2] | activity change, negative = inhibition [3] | activity change, negative = inhibition [4] | activity change, negative = inhibition [5]
22 | CC1=C[C@H]2O[C@@H]3[C@H](O)[C@@H](O)[C@](C)([C@@]2(CO)C[C@@H]1O)[C@]31CO1 | 7% | 7.65% | 10.3% | -4.35% | 1.3%
23 | C=C(C)[C@@]12O[C@@H]1[C@@]1(C)C(=CC2=O)CC[C@@H](OC(C)=O)[C@@H]1C | -1.22% | -8.74% | -7.43% | -20.9% | -6.48%
24 | O=C(Nc1ccccc1F)N1Cc2ccccc2-n2cccc2C1c1cccc(Cl)c1 (centres undefined) | 5.76% | 0% | -1.02% | -0.474% | 3.36%
25 | O=C(c1ccc2c(c1)OCO2)N1CCC(C(=O)O)(c2ccccc2)CC1 | -8.71% | -2.11% | -0.465% | 2.71% | -0.21%
26 | O=C(NCc1ccc(F)cc1)N1Cc2ccccc2-n2cccc2C1c1cccs1 (centres undefined) | 4.37% | 3.9% | -9.86% | -12.8% | -4.65%
27 | CC(=O)OCC1=C(C(=O)O)N2C(=O)[C@@H](NC(=O)CCC[C@@H](N)C(=O)O)[C@H]2SC1 | 1.43% | 4.22% | 2.22% | -8.42% | -1.64%
28 | Cc1cccc(C2c3cccn3-c3ccccc3CN2C(=O)NCCC(C)C)c1 (centres undefined) | 13.1% | 4.67% | 8.8% | 3.05% | 5.85%
29 | CCC1c2cccn2-c2ccccc2CN1C(=O)Nc1ccccc1Cl (centres undefined) | -1.52% | 1.81% | 7.86% | 3.31% | 11.1%
30 | CC1=C[C@H]2O[C@@H]3C[C@H]4OC(=O)/C=C/C=C/C(=O)OCC/C(C)=C/C(=O)OC[C@@]2(CC1)[C@]4(C)[C@]31CO1 | -1.25% | -5.98% | -5.81% | -21.4% | -5.79%
31 | CCOc1ccccc1NC(=O)N1Cc2ccccc2-n2cccc2C1c1ccccc1 (centres undefined) | 0.134% | 2.95% | -7.08% | -11.2% | -5.88%
32 | COc1ccc(C2c3cccn3-c3ccccc3CN2C(=O)Nc2ccc(F)c(Cl)c2)cc1OC (centres undefined) | 12.2% | 1.15% | 3.75% | 2.74% | 6.99%
33 | COc1ccc(C2c3cccn3-c3ccccc3CN2C(=O)Nc2cc(C)ccc2OC)cc1 (centres undefined) | 3.05% | 2.83% | -11.7% | -8.77% | -3.12%
34 | C[C@@H]1CCC/C=C/[C@H]2C[C@@H](O)C[C@@H]2[C@@H](O)/C=C/C(=O)O1 | 6.86% | – | 10.6% | – | –
35 | CCNC(=O)[C@H]1O[C@@H](n2cnc3c(N)ncnc32)[C@H](O)[C@@H]1O | -8.51% | -5.7% | -5.13% | -8.77% | -2.32%
36 | Cc1cccc(C2c3cccn3-c3ccccc3CN2C(=O)Nc2ccccc2F)c1 (centres undefined) | 5.53% | 0% | 0.818% | -0.111% | 2.3%
37 | CN1CCc2cc3c(cc2C1C1OC(=O)c2c1ccc1c2OCO1)OCO3 (centres undefined) | -1.08% | 3.88% | 3.2% | -11.7% | 0.785%
38 | O=C(Nc1cc(F)ccc1F)N1Cc2ccccc2-n2cccc2C1c1ccccc1 (centres undefined) | 7.45% | 0% | 12.8% | 6.28% | 8.24%
39 | OC(CNc1ccccc1)Cn1c2ccc(Br)cc2c2cc(Br)ccc21 (centres undefined) | 6.56% | -22.1% | 4.8% | -37.9% | -7.73%
40 | N#Cc1ccccc1-c1cc(-c2ccccn2)cn(-c2ccccc2)c1=O | -7.39% | -20.5% | -8.82% | -30.6% | -17.6%
41 | CN1CC2(C1)C(=O)N(C)C(=O)[C@@H]1C[C@@H](O)CN12 | -0.397% | 2.23% | 1.4% | -5.06% | 13%
42 | Clc1ccc(N2CC3CCC(C2)N3)nn1 | -10% | 3.24% | -3.88% | -5.96% | 2.6%

Row | SMILES | activity change, negative = inhibition [1] | activity change, negative = inhibition [2] | activity change, negative = inhibition [3] | activity change, negative = inhibition [4] | activity change, negative = inhibition [5]
43 | CC(C)c1ccc(C2c3cccn3-c3ccccc3CN2C(=O)Nc2cc(F)ccc2F)cc1 (centres undefined) | -4.14% | 1% | -8.38% | -12.3% | -4.01%
44 | CC[C@@H]1/C=C/C=C/C[C@H](C)C(O)[C@](C)(O)C(=O)[C@H](C)C(O)[C@H](C)C(=O)[C@H](C)[C@@H](O)[C@H](C)/C=C/C(=O)O[C@H]2[C@@H](C)[C@@H](CC1)O[C@]1(O[C@H](C[C@H](C)O)[C@H](C)CC1=O)[C@@H]2C (some centres undefined) | 6.47% | 9.1% | 7.89% | -5.21% | 7.33%
45 | COc1ccc(C2c3cccn3-c3ccccc3CN2C(=O)Nc2cc(C)cc(C)c2)cc1OC (centres undefined) | 14.6% | 2.95% | 6.96% | 5.95% | 9.31%
46 | Cc1cccc(C)c1NC1=NCCCS1 | 1.57% | 6.67% | -12.3% | -2.94% | 9.99%
47 | CCCCCN(C)CCC(O)(P(=O)(O)O)P(=O)(O)O | -3.54% | 1.67% | -1.11% | -6.27% | 2.91%
48 | CC(=O)N(C1CC1)C1CCOC2(CCNCC2)C1 (centres undefined) | -0.84% | -2.09% | 0.432% | -5.74% | -1.72%
49 | COc1ccccc1NC(=O)N1Cc2ccccc2-n2cccc2C1c1ccc(OC)c(OC)c1 (centres undefined) | 10.5% | 0% | 5.82% | -1.09% | 4.2%
50 | CN1C2CCC1CC(OC(c1ccccc1)c1ccccc1N)C2 (centres undefined) | 6.26% | 10.4% | -35% | -4.69% | 8.38%
51 | CC/C=C/C=C/C1(C)OC(OC)=C(C(=O)C2C(C)C(=O)c3cc(OC)c(O)c(O)c3C2(C)O)C1=O (centres undefined) | 1.71% | 5.48% | 10.9% | -9.52% | 6.1%
52 | O=C(N[C@H]1CN2CCC1CC2)c1cc2cccc(Cl)c2s1 | 5.31% | 13.8% | -6.74% | -7.35% | -5.78%
53 | COc1cccc(NC(=O)N2Cc3ccccc3-n3cccc3C2c2cccc(Cl)c2)c1 (centres undefined) | 6.6% | 1.13% | -2.72% | 0.622% | 6.28%
54 | NCCc1c[nH]c2ccccc12 | -6.79% | 1.02% | -81.5% | -10.8% | -12.1%
55 | Clc1ccc(N2C[C@H]3CC[C@@H](C2)N3)nn1 | 3.16% | 5.3% | -3.86% | -9.96% | 1.83%
56 | CN(C(=O)Cc1ccccc1)C(CN1CCCC1)c1ccccc1 (centres undefined) | -5.11% | – | -4.66% | – | –
57 | O=C(Nc1cccc(Cl)c1)N1Cc2ccccc2-n2cccc2C1c1cccs1 (centres undefined) | 5.86% | 2.17% | 0.416% | -3.99% | 0.897%
58 | Cc1ccc(CNC(=O)N2Cc3ccccc3-n3cccc3C2c2cccc(C)c2)cc1 (centres undefined) | 10.7% | 0.393% | 9.17% | 10.7% | 8.65%
59 | CC(C)[C@H](NC(=O)c1nn(Cc2ccc(F)cc2)c2ccccc12)C(N)=O | -3.98% | -12.9% | -0.361% | -34.4% | -10.2%
60 | NCCCCCNC1(c2ccccc2)CCCCC1 | -2.21% | -0.614% | -47.5% | -14.6% | 0.443%
61 | CN[C@@H]1C[C@H]2O[C@@](C)([C@@H]1OC)n1c3ccccc3c3c4c(c5c6ccccc6n2c5c31)C(=O)NC4 | -10.3% | -4.25% | -12.7% | -30.6% | -20.3%
62 | COC(=O)C1(C)CCC(O)C2(C)c3c(O)cc(C(C)C)cc3C(O)C(OC(C)=O)C12 (centres undefined) | 0% | 1.22% | 4.51% | -10.8% | 3.91%
